Assay results from US20250223353A1 (BIOTHEUS, published 2025).

T1: human PVRIG on the cell surface (human, UniProt Q6DKI7 41-326)
T1 construct: whole, on cells; also called CHO-huPVRIG cells; human PVRIG protein overexpressed on the surface of CHO cells
T1 sequence (looked up): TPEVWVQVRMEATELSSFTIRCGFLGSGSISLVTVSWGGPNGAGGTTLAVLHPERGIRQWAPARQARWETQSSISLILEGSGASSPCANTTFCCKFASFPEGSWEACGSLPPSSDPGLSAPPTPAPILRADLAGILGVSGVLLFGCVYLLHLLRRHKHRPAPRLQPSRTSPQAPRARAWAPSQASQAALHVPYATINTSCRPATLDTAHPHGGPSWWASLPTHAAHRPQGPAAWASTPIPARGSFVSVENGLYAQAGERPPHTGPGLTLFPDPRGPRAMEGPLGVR

T2: cynomolgus PVRIG overexpressed on CHO cells (cynomolgus, UniProt A0A2K5WVV8 1-322)
T2 construct: whole, on cells; also called CHO-cynoPVRIG cells
T2 sequence: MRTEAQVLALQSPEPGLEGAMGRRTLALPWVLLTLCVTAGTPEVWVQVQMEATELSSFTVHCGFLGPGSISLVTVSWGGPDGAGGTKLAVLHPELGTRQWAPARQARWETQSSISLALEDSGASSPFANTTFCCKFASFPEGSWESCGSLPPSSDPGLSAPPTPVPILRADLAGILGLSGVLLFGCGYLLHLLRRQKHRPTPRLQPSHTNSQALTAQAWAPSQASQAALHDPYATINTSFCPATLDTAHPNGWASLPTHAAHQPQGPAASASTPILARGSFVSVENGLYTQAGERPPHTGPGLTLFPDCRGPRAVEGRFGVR

T3: human PVRIG protein with mouse IgG2a Fc tag (human, UniProt Q6DKI7 41-171, limits assumed)
T3 construct: not shown: mouse IgG2a Fc tag
T3 sequence (looked up): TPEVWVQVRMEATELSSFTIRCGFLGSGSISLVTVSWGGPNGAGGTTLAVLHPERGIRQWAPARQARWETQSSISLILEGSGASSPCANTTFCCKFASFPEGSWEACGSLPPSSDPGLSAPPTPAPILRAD

B1: ADI-56204-G1 (antibody, human IgG1, kappa)
heavy: QVQLVQSGAEVKKPGASVKVSCKASGYTFTHYGIYWVRQAPGQGLEWMGHIYAYSGDTDYAQKLQGRVTMTTDTSTSTAYMELRSLRSDDTAVYYCARGSPTYEHFNWFDPWGQGTLVTVSS[human IgG1 constant region skipped]
light: DIQMTQSPSSLSASVGDRVTITCQASDDISDYLNWYQQKPGKAPKLLIYDASSLHTGVPSRFSGSGSGTDFTFTISSLQPEDIATYYCQQYGNLPITFGGGTKVEIKRTVAAPSVFIFPPSDEQLKSGTASVVCLLNNFYPREAKVQWKVDNALQSGNSQESVTEQDSKDSTYSLSSTLTLSKADYEKHKVYACEVTHQGLSSPVTKSFNRGEC
notes: Wild-type human IgG1 / kappa, expressed in HEK293
B2: ADI-56204-G1LALA (antibody, human IgG1, kappa)
heavy: QVQLVQSGAEVKKPGASVKVSCKASGYTFTHYGIYWVRQAPGQGLEWMGHIYAYSGDTDYAQKLQGRVTMTTDTSTSTAYMELRSLRSDDTAVYYCARGSPTYEHFNWFDPWGQGTLVTVSS[human IgG1 constant region with changes skipped]
light: DIQMTQSPSSLSASVGDRVTITCQASDDISDYLNWYQQKPGKAPKLLIYDASSLHTGVPSRFSGSGSGTDFTFTISSLQPEDIATYYCQQYGNLPITFGGGTKVEIKRTVAAPSVFIFPPSDEQLKSGTASVVCLLNNFYPREAKVQWKVDNALQSGNSQESVTEQDSKDSTYSLSSTLTLSKADYEKHKVYACEVTHQGLSSPVTKSFNRGEC
B3: ADI-56127-G1 (antibody, human IgG1, kappa)
heavy: QVQLVQSGAEVKKPGSSVKVSCKASGGTESVDAISWVRQAPGQGLEWMGDIIPFFDTDYAQKFQGRVTITADESTSTAYMELSSLRSEDTAVYYCAREGGTSWTHFFDLWGRGTLVTVSS[human IgG1 constant region skipped]
light: [about 200 residues skipped]
notes: as for B1
B4: ADI-56127-G1LALA (antibody, human IgG1, kappa)
heavy: QVQLVQSGAEVKKPGSSVKVSCKASGGTESVDAISWVRQAPGQGLEWMGDIIPFFDTDYAQKFQGRVTITADESTSTAYMELSSLRSEDTAVYYCAREGGTSWTHFFDLWGRGTLVTVSS[human IgG1 constant region with changes skipped]
light: [about 200 residues skipped]

Assays:
[1] = molecular target: T1, human PVRIG on the cell surface; test: flow cytometry on CHO-huPVRIG cells
[2] = molecular target: T2, cynomolgus PVRIG overexpressed on CHO …; test: flow cytometry on CHO-cynoPVRIG cells
[3] = molecular target: T3, human PVRIG protein with mouse IgG2a Fc …; test: flow cytometry competition: human PVRIG-mouse IgG2a Fc (1 ug/mL) binding to CHO-huCD112 cells
[4] = molecular target: T4, mouse PVRIG overexpressed on CHO cells (mouse); test: flow cytometry on CHO-muPVRIG cells
T4 construct: whole, on cells; also called CHO-muPVRIG cells

| Binder | EC50 [1] | EC50 [2] | IC50 [3] | EC50 [4] |
| --- | --- | --- | --- | --- |
| B1 | 2.73 nM | 2.36 nM | 1 nM | – |
| B2 | 2.5 nM | 1.97 nM | 0.991 nM | – |
| B3 | 2.51 nM | 1.96 nM | 1.23 nM | 6.47 nM |
| B4 | 2.44 nM | 1.98 nM | 1.36 nM | 5.38 nM |
